From a collection of fitness landscapes (doi:10.1016/j.celrep.2020.107928)
Whole data set: some 81,000 sequences, median “one-hybrid fitness for binding parS DNA” near -0.17, cut for the highest 2% near 0.51. The list shows a part of the results.

B1: Caulobacter ParB omega fusion; a variant is named by its letters at X, in order, B8GW30 (parent)
chain: MESVVVGEPGMSEGRRGLGRGLSALLGEVDAAPAQAPGEQLGGSREAPIEILQRNPDQPRRTFREEDLEDLSNSIREKGVLQPILVRPSPDTAGEYQIVAGERAWRAAQRAGLKTVPIMVRELDDLAVLEIGIIENVQRADLNVLEEALSYKVLMEKFERTQENIAQTIGKSXSHVANXMRLLXLPDEVQSYLVSGELTAXHARAIAAAADPVALAKQIIEGGLSVRETEALARKAPNLSAGKSKGGRPPRVKDTDTQALESDLSSVLGLDVSIDHRGSTGTLTITYATLEQLDDLCNRLTRGI

Variants of: B1
Assay: one-hybrid fitness for binding parS DNA (scaled: cognate 1, non-cognate 0); higher = stronger binding
Conditions: with parS DNA site
How it was run: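 Values were rescaled so that cognate is 1 and non-cognate is 0. Each is a fitness, the log change in a variant's read ratio to wild type from Illumina reads of plasmids before and after selection, with three replicate libraries pooled and variants under 10 reads dropped. Selection of the Caulobacter ParB libraries, four specificity codons randomised, used E. coli USO with a HIS3 reporter, site 19 bp from the promoter, on M9-minus-histidine with 0.1 mM IPTG and 5 mM 3-AT for 48 hours at 37°C.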

one-hybrid fitness for binding parS DNA, 0.362:
RLNM

one-hybrid fitness for binding parS DNA, 0.324:
RVPA

one-hybrid fitness for binding parS DNA, ≤ 0.2:
QEWR
LAHG
TTCA
VVLY
SFTV
AHRL
IETL
RSCL
RGHN
YIMG
PSRW
HVAE
DIMI
CGPT
DCAG
REHF
QHKI
NMDG
LGPT
PENG
WTFT
PNRY
IWVG
NHHE
HVRY
SIDA
SHHQ
YHRI
TLMR
ALAQ
QRDK
QSNW
HRYR
LTHQ
EPSV
LKIF
YANS
KEIG
ATSR
TEIV
YLYS
SNAF
QPEV
GNMS
ARLM
SEKA
TEPC
DLNE
DQGG
QRCM
DWTD
QNYK
AGVI
EIAG
YFDL
DRSE
RVKI
ATMI
QSRN
GSRK
APDK
KEYD
HCAS
MVCA
NTET
PARM
HDDS
GQFL
RPTV
RRVM
VPLG
VPRC

one-hybrid fitness for binding parS DNA, 0.377:
RFSN

one-hybrid fitness for binding parS DNA, 0.929:
RMKG

one-hybrid fitness for binding parS DNA, 0.269:
HRYG
